Where “and” joins values, the source holds several entries; their conditions need not be identical. Equal values may be shown once. The list shows a part of the results, in another mix than the full data. Records with an inconclusive call do not appear. Calls of active or inactive are those of the source. Calls come from the whole dose curve; as a rule, active = well fitted inhibition curve with a large enough effect; inconclusive = small, poorly fitted or top-dose-only effect; inactive = no such curve, though single readings can be large or run the other way.
The compounds below were run against Cytochrome P450 3A7 (Homo sapiens) (UniProt P24462) (assay: Cytochrome P450 family 3 subfamily A member 7 (CYP3A7) small molecule antagonists: luciferase biochemical qHTS assay (AID 1963596; note: nearly all actives have a fitted effect of over 40% in size)). Conditions: P450-Glo CYP3A7 enzyme luminescence, 1 h; series mostly up to 57.4 µM.
UniProt P24462, sequence (P24462 whole entry, looked up): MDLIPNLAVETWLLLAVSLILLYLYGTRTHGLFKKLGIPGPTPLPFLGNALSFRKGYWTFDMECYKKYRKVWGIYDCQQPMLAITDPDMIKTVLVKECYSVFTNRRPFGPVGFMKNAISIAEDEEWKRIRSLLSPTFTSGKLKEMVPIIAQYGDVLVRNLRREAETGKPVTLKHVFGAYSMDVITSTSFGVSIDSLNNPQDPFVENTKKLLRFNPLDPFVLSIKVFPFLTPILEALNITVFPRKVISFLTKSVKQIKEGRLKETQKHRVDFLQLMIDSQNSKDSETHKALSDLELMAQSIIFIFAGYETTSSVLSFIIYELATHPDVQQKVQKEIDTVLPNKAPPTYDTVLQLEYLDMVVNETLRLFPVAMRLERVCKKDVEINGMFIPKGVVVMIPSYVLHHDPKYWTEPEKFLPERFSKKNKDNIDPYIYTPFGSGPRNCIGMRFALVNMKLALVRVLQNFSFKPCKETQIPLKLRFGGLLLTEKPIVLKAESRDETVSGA
Excerpt: National Center for Advancing Translational Sciences [NCATS] Assay Overview: Cytochrome P450 (CYP) enzymes are membrane-bound hemeproteins that play a key role in metabolism of drugs and xenobiotics. The CYP3A subfamily is the most abundant, representing 30% of the total adult hepatic CYP content, whereas CYP3A7 is found predominantly in human fetal liver and accounts up to 50% of the total fetal hepatic CYP content. Testing the effect of chemicals on CYP isozymes is useful to minimize the adverse drug reactions and toxicities in the drug development process. Chemicals were tested for their effect on CYP enzyme activities by using P450-Glo (TM) screening systems (Promega Corporation, Madison, WI). These systems provide a luminescent method containing proluciferin substrates and are converted to luciferin products by CYP isozymes. The luciferin products formed are detected with a luciferin detection reagent, and the amount of light produced is proportional to CYP activity. P450-Glo (TM) CYP3A7 screening system (Catalog. No. V8812) was used to detect the compounds that interfere with CYP3A7 activity. The positive control compound used for CYP3A7 assay is ketoconazole (Sigma-Aldrich, St. Louis, MO).
Assay Protocol Summary: Two ul of enzyme-substrate mix was dispensed into medium binding white/solid 1536-well plates (Greiner Bio-One North America Inc., Monroe, NC) using a Flying Reagent Dispenser (FRD, Aurora Discovery, San Diego, CA). Compounds dissolved in DMSO, and positive control (ketoconazole) were transferred to the assay plates at 23 nl using a Pintool station (Wako, San Diego, CA). The assay plates were incubated at room temperature for 10 min. Then 2 ul of NADPH regeneration solution was added to each well of the assay plates using an FRD and incubated at room temperature for 1 h. The reaction was stopped by adding 4 ul of detection reagent using an FRD and after 20 min incubation at room temperature the luminescence signal was measured using a ViewLux plate reader (Perkin Elmer, Shelton, CT). Data were expressed as relative luminescence units.
`CCC(C)(CN(C)C)OC(=O)c1ccccc1` (stereo not drawn) was tested, and the Potency was “inactive”. With `Nc1ccc(C(=O)Nc2cccc(-c3nc(N4CCOCC4)c4oc5ncccc5c4n3)c2)cn1` the Potency was active: 5.01 µM. `CC(C)n1c(=O)c(C(=O)NC2CC3CCC(C2)N3C[C@@H](O)CN(C)S(C)(=O)=O)cc2ccccc21` (stereo partly drawn) was tested, and the Potency was “inactive”. `Cc1ccc(CCCO)c(NCc2ccc3nc(NCCCN4CCOCC4)n(Cc4nc(C)ccc4O)c3c2)c1` was tested, and the Potency was active: 10.7 µM. In the case of `C[C@@H](O)[C@H]1C(=O)N2C(C(=O)OCOC(=O)C(C)(C)C)=C(SC3CN(C4=NCCS4)C3)[C@H](C)[C@H]12`, the Potency is reported as active: 14.1 µM. In the case of `N#Cc1ccc(-c2ccc(S(=O)(=O)Nc3cccc(N)n3)cc2)cc1`, the Potency is reported as active: 10.7 µM. With `O=C(c1ccc(F)cc1)N1CCCC(c2nc(-c3ccc(F)cc3)no2)C1` (stereo not drawn) the Potency was “inactive”. `COC(=O)C1=C(C)NC(C)=C(C(=O)OC)C1c1ccccc1[N+](=O)[O-]` was tested, and the Potency was active: 2.75 µM. For `Cc1c(NC(=O)N2CCOCC2)ccc2c1c1ccccc1n2C(C)C`, the Potency was active: 2.13 µM. `CCn1cc(C(=O)O)c(=O)c2cc(F)c(N3CCN(C)CC3)cc21` was tested, and the Potency was “inactive”. In the case of `Cc1cc(/C=C/c2ccc3cc(N(C)C)ccc3[n+]2C)c(C)n1-c1ccccc1`, the Potency is reported as active: 11.2 µM. In the case of `CCc1nc2ccc(C(=O)N3CCN(c4cc(C)ccc4C)CC3)cc2nc1CC`, the Potency is reported as active: 10.7 µM. With `C[C@@H]1C[C@H]2[C@@H]3C[C@H](F)C4=CC(=O)C=C[C@]4(C)[C@@]3(F)[C@@H](O)C[C@]2(C)[C@@]1(O)C(=O)CO` the Potency was active: 1.74 µM and active: 1.07 µM. With `NC(=O)NNc1ccccc1` the Potency was active: 13.8 µM. For `O=C1OCCN1/N=C/c1ccc([N+](=O)[O-])o1`, the Potency was active: 15.5 µM and active: 10.7 µM. With `CCCCC(=O)OCC(=O)[C@H]1[C@H](C)C[C@H]2[C@@H]3C[C@H](F)C4=CC(=O)C=C[C@]4(C)[C@@]3(F)[C@@H](O)C[C@@]21C` the Potency was active: 0.49 µM. For `CC(C)(CO)[C@@H](O)C(=O)NCCC(=O)NCCSSCCNC(=O)CCNC(=O)[C@H](O)C(C)(C)CO`, the Potency was “inactive”. For `NC(=O)c1cnc(-c2ccc(C3(N)CCC3)cc2)c(-c2ccccc2)c1`, the Potency was active: 0.282 µM.

Reference: PubChem BioAssay (NCATS)
Potency is the fitted concentration of half-maximal effect.
